Source: article PMC4599898
No constants are given. Whether binding was seen depends on the method and setting. Binding seen in cells or lysates may run through a third protein.

Tests used:
Test in all cases: split reporter; split YFP BiFC in transiently transformed Arabidopsis protoplasts, 2 ug of each plasmid, incubated overnight; read by flow cytometry (at least three biological replicates, minimum 30,000 cells); each pair tested in both fusion conformations (SPN and SPC); positive where the normalized BiFC score lies above the threshold 0.01 in both conformations
[1] = biological target: T1, HyH (Arabidopsis thaliana) (UniProt Q8W191)
T1 sequence: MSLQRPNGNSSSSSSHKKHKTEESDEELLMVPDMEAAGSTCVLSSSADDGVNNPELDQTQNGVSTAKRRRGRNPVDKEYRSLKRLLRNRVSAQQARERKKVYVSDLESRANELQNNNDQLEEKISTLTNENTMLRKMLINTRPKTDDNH

[2] = biological target: bZIP9 (Arabidopsis thaliana) (UniProt Q9FUD3)
[3] = biological target: T2, bZIP16 (Arabidopsis thaliana) (UniProt Q501B2)
T2 sequence: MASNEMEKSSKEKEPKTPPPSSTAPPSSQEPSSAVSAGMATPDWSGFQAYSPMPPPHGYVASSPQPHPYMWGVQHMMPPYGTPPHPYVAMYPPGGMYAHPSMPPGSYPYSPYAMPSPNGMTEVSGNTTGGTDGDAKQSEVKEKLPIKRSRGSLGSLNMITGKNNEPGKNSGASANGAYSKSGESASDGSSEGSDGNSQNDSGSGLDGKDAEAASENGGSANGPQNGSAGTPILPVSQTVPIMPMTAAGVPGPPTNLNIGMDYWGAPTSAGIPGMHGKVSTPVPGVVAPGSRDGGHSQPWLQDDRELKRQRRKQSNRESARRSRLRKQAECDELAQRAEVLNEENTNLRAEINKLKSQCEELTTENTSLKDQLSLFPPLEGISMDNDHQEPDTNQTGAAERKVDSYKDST

[4] = biological target: T3, bZIP25 (Arabidopsis thaliana) (UniProt Q9M1G6)
T3 sequence: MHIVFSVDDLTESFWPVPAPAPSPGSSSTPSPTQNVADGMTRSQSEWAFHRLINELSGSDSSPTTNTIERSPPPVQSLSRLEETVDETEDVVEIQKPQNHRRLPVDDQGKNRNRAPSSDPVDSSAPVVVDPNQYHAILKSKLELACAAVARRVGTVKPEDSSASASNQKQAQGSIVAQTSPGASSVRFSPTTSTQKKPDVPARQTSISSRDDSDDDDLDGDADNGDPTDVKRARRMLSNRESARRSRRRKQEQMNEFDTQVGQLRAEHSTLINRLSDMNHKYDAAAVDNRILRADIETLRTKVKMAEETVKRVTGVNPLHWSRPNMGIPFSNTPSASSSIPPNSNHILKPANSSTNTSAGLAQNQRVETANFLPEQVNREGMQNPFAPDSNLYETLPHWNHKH

[5] = biological target: T4, bZIP10 (Arabidopsis thaliana) (UniProt O22763)
T4 sequence: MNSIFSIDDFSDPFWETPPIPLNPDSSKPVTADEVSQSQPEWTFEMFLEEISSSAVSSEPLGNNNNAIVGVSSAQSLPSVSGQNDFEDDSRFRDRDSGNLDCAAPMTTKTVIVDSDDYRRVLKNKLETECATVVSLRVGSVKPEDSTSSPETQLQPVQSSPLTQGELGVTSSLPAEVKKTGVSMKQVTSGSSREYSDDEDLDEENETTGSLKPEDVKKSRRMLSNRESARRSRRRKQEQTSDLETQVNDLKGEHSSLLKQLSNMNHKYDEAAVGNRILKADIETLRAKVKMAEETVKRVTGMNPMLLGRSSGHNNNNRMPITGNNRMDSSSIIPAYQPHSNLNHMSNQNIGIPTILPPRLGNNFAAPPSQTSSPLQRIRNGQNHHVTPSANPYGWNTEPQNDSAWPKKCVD

[6] = biological target: T5, GBF1 (Arabidopsis thaliana) (UniProt P42774)
T5 sequence: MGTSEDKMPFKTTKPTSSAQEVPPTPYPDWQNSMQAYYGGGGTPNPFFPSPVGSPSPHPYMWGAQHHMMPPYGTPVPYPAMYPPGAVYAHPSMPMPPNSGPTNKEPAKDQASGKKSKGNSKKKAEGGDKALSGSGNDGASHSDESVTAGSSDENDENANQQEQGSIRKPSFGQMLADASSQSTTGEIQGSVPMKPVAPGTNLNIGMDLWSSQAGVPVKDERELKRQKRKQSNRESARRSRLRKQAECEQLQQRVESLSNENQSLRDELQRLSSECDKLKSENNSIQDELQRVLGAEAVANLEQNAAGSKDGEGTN

Measured: binding

B1: bZIP9 (protein, UniProt Q9FUD3 1-277)
chain: MDNHTAKDIGMKRSASELALQEYLTTSPLDPCFDLMNRDYTCELRDSLLWSEGLFPAGPFRDAQSSICENLSADSPVSANKPEVRGGVRRTTSGSSHVNSDDEDAETEAGQSEMTNDPNDLKRIRRMNSNRESAKRSRRRKQEYLVDLETQVDSLKGDNSTLYKQLIDATQQFRSAGTNNRVLKSDVETLRVKVKLAEDLVARGSLTSSLNQLLQTHLSPPSHSISSLHYTGNTSPAITVHSDQSLFPGMTLSGQNSSPGLGNVSSEAVSCVSDIWP
no binding: all assays above
